Measured values as given in paper PMC12815959 (Nature Communications, 2025).

Target: LRBA PH-Myc (human LRBA PH-BEACH domain with a Myc tag) (human, UniProt P50851 2076-2489)
Assay: co-IP

binding result: binds
B1: WT CTLA4-Flag (receptor)
chain: not shown
